Data on 52 molecules can be found in the supplement of paper PMC10986608.

Each structure is given as a SMILES string. The list shows a part of the results. Most values come without repeats; read them as rough.

This assay concerns Candida albicans DPL-15. In words: growth (OD600) after compound treatment (apparently relative to screen median) (relative growth (fraction; screen median 1.02)); DPL-15 is a caspofungin-resistant clinical isolate; higher = more fungal growth (less antifungal activity). Particulars: 25 µM; RPMI 1640; 48 h; 30 °C.
With `CCOC(=O)[C@@]1([C@@H](NC(=O)OC)c2cccc(F)c2)CCCC1=O`, the growth is 0.965. As for `CC(C)C1=NCCN(C)C2=C1C(c1ccc(F)cc1)N(Cc1ccccc1)C2=O` (configuration not stated), the figure is 0.977; as for `Cc1ccc(C2NC(=O)c3nn(-c4ccc(OC(F)(F)F)cc4)c(C(C)C)c32)cc1` (configuration not stated), 1.03; as for `CC(C)CNC(N)=S`, 1.12. As for `COC(=O)/C=C/Cn1c(-c2ccccc2)nc2c(c1=O)[C@@H](c1ccccc1)[C@]1(c3ccc(OC)cc3)Oc3cc(OC)cc(OC)c3[C@]21O`, the figure is 1.09; as for `COc1ccc([C@@]23Oc4cc(OC)cc(OC)c4[C@]2(O)[C@H](O)[C@H](C(=O)N(C)OC)[C@H]3c2cccc(OC)c2)cc1`, 0.955; as for `COc1cccc(/C=N/N(C(=O)C(F)(F)F)c2ccc(C)cc2C)c1`, 1.01. As for `O=C1C2=C(C(c3ccccc3)=NCCN2)C(c2ccc3c(c2)OCO3)N1Cc1ccccc1` (configuration not stated), the figure is 1.04; as for `COc1ccc(NS(=O)(=O)N2CCOCC2)cc1`, 1.08. Regarding `COc1cc2c(cc1OC)C[NH+](CCc1ccc(NC(=O)Cc3ccccc3C)cc1)CC2`, the growth came to 1.14. As for `Cc1cc2c(c(=O)o1)[C@@]1(C(=O)N(C)c3ccccc31)C1=C(CCCC1=O)O2`, the figure is 1.09; as for `CCc1ccccc1-n1nc2c(c1C(C)C)C(c1cccc(C(F)(F)F)c1)NC2=O` (configuration not stated), 1.03; as for `C=C1CC[C@@H]2[C@@H](C(=O)C(C)C)C3=C(O[C@@]2(C)CC[C@@H]2[C@@H]1CC2(C)C)C(C)(C)C(=O)C(C)(C)C3=O`, 0.895. As for `COc1ccc(-c2cnn3c(N)c(-c4ccc(F)cn4)cnc23)cc1`, the figure is 1.14; as for `Cc1nn(C)c2c1C(c1ccc3c(c1)OCO3)NC2=O` (configuration not stated), 0.955. As for `COc1cc(CC=C(C)C)c2c(=O)c3ccc(Cl)cc3oc2c1O`, the figure is 1.21. For `CCNC1=NC(c2ccccc2)C(C(=O)OC)=C(C)N1Cc1ccc(C(F)(F)F)cc1` (configuration not stated), the growth turned out to be 0.882.

Turning to `CC(=O)OC[C@H]1O[C@H](C#Cc2ccc(Br)cc2)C=C[C@H]1OC(C)=O`, the growth is 1.

On to `CC(C)Cc1n[nH]c2c1C(c1ccc(F)cc1)N(c1ccc(F)cc1)C2=O` (configuration not stated), for which the growth stood at 1.29. As for `CC(C)n1cc(Nc2cc(O)cc(O)c2C(=O)N2CC[C@H](F)C2)cn1`, the figure is 1.09; as for `O=C(c1c(O)cc(O)cc1Nc1ccnn1C1CCCCC1)N1Cc2ccccc2C1`, 0.946.

As to `C=CCN1C(=O)C2=C(C(CC(C)C)=NCCN2C)C1c1cccc(C(F)(F)F)c1` (configuration not stated), the growth came out at 0.942. As for `CC(=O)c1cc(Br)c(O)c(Br)c1O`, the figure is 0.883; as for `COC(=O)Cc1nnn2c1[C@H](C)[C@H](C(C)(C)C)OCC2`, 0.979; as for `CC(C)c1ccc(Cn2nccc2Nc2cc(O)cc(O)c2C(=O)N2Cc3cn[nH]c3C2)cc1`, 1.1. As for `COc1ccccc1Cn1nc(C)c2c1C(=O)NC2c1ccc(F)cc1` (configuration not stated), the figure is 1.08; as for `O=c1c(O)c(-c2ccc(Br)cc2)[nH]c2cccc(F)c12`, active: 0.0644. As for `Cc1nnc(Nc2ccccc2)c2c(C)n(-c3ccccc3)c(C)c12`, the figure is 1.12; as for `CCCCS(=O)(=O)N1CCCc2nc(-c3ccc(Br)cc3)ccc21`, 1. With `COC(=O)C/C=C/[C@H](C)[C@H](NC(=O)C(F)(F)F)c1cccc(OC)c1`, the growth amounted to 0.993.

Turning to `Cc1ccc(S(=O)(=O)Oc2c(C[C@@]34CCCCC3=Nc3ccccc34)occc2=O)cc1`, the growth amounted to 1.2. As for `COC(=O)c1cc2c(c3c4ccccc4n(S(=O)(=O)c4ccccc4)c13)C(=O)N(Cc1ccc(C(F)(F)F)cc1)C2`, the figure is 1.05; as for `CC(C)CC1=NCCNC2=C1C(c1cccc(C(F)(F)F)c1)N(c1ccccc1)C2=O` (configuration not stated), 0.991; as for `C=CCC1=C(OC)C(CC=C)(C/C=C/c2ccc([N+](=O)[O-])cc2)C(O)=C(C(=O)c2ccccc2)C1=O` (configuration not stated), 1.06. As for `CC#CCN1C(=O)N(C(C)=O)C(c2ccccc2)C(C(=O)OC)=C1CC` (configuration not stated), the figure is 0.969; as for `COC(=O)c1nnc(N[C@@H](Cc2c[nH]c3ccccc23)C(=O)OC)nc1C(=O)OC`, 0.95. As for `COC(=O)CC#C[C@H](C)[C@@H](NS(=O)(=O)c1ccc([N+](=O)[O-])cc1)C(C)(C)C`, the figure is 1.15. In the case of `CC(C)Cc1n[nH]c2c1C(c1ccccc1Cl)N(c1ccc3ncnn3c1)C2=O` (configuration not stated), the growth turned out to be 1.04.

In the case of `CC(C)=C(C#N)Cc1cc(O)cc2oc3cccc(O)c3c(=O)c12`, the growth worked out at 0.985. With `CCCC[C@]12Cc3ccccc3[C@H](O1)c1c(cc(-c3ccccc3)oc1=O)O2`, the growth came to 1.04. As for `COC1=C[C@@H]2C(=O)[C@H](C1=O)[C@@H]1c3ccccc3C[C@]21C`, the figure is 1.02; as for `COc1cc2c3c4c(c(O)cc(C)c14)C(=O)O[C@@H]3[C@@H]1C[C@@H](C)O[C@]1(/C=C/CCC(=O)O)O2`, 1.04; as for `COc1ccccc1Cn1nc(C)c2c1C(=O)NC2c1ccccc1` (configuration not stated), 0.949. As to `CCC(C)CCOS(=O)(=O)NCC(F)(F)F` (configuration not stated), the growth amounted to 0.914.

As to `CC(C)Cc1nn(C)c2c1C(c1ccc(F)cc1)N(Cc1ccccc1)C2=O` (configuration not stated), the growth was 0.963.

As for `CC(C)c1nn(-c2ccc(F)cc2)c2c1C(c1ccccc1)NC2=O` (configuration not stated), the growth came to 0.984. As for `COc1ccc(N2C(=O)c3nn(C)c(-c4ccccc4)c3C2c2cccc(C(F)(F)F)c2)cc1` (configuration not stated), the figure is 1.03; as for `CC(C)(C)CN(C(=O)OC(C)(C)C)S(=O)(=O)NC(C)(C)C`, 1.13. As for `COc1ccc(N2C(=O)C3=C(C(c4ccccc4)=NCCN3)C2c2ccccc2)cc1` (configuration not stated), the figure is 1.1; as for `COC(=O)C/C=C/[C@H](C)[C@@H](NC(=O)[C@@H](CC(C)C)NC(=O)OC(C)(C)C)c1ccccc1`, 1.05. As for `CC(C)c1nn(Cc2ccccc2)c2c1C(c1cccc(C(F)(F)F)c1)NC2=O` (configuration not stated), the figure is 1.04; as for `COC(=O)C1=C(C)NC(=O)NC1c1ccc(Br)cc1` (configuration not stated), 0.896.
